From PubChem BioAssay (NCATS)
Several values for one entry are separate records, joined by “and”; a condition that tells them apart may be missing. Identical values can stand only once. The list shows a part of the results. These are further read-outs of the screen, such as a control signal, another cell line or another target. No call is given for them. The list favours compounds with an active or inconclusive main result. The note in brackets gives the kind of curve behind each potency; many fits are weak.

target: Histamine N-methyltransferase (Homo sapiens) (UniProt P50135); assay: Confirmatory Screen for Target Class Profiling of Small Molecule Inhibitors of Methyltransferases (AID 1745852); conditions: MTase-Glo luminescence, SAH detection, recombinant enzyme; measured here: HNMT inhibition potency;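 note: inhibitor potency for blocking SAH production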
Tags give direction and shape of the fitted curve.

Sequence of UniProt P50135 (P50135 whole entry, looked up): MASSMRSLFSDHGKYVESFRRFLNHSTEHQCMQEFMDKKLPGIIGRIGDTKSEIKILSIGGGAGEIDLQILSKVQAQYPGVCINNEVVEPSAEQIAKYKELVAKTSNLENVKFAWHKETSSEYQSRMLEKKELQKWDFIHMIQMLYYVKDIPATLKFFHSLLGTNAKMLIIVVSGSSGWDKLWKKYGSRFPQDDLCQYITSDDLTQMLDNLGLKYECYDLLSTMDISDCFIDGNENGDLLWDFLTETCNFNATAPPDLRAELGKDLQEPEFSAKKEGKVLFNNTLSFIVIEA

| Compound | IC50 |
| --- | --- |
| CC(C)N(C[C@H]1O[C@@H](n2cnc3c(N)ncnc32)[C@H](O)[C@@H]1O)C1CC(CCc2nc3ccc(C(C)(C)C)cc3[nH]2)C1 (stereo not given in full) | 19.2 µM [falling, partial curve] |
| c1ccc(Cn2c(-c3ccc(OCC(C4CCNCC4)n4c(-c5ccccc5)nc5ccccc54)cc3)nc3ccccc32)cc1 (stereo not given) | 21.5 µM [falling, partial curve] |
| Nc1nc(NCC2CCC(CNS(=O)(=O)c3cccc4ccccc34)CC2)nc2ccccc12 (stereo not given) | 5.41 µM [falling, full curve] |
| N#Cc1ccc(COC[C@H]2O[C@@H](n3c(NCc4ccc(Cl)c(Cl)c4)nc4c(N)ncnc43)[C@H](O)[C@@H]2O)cc1 | 10.5 µM [falling, partial curve] |
| CN(C)c1nc(NC2CCC(NCCc3ccc(Br)cc3OC(F)(F)F)CC2)nc2ccccc12 (stereo not given) | 10.8 µM [falling, partial curve] |
| Nc1nccc(Oc2ccc(NC(=O)c3c[nH]cc(-c4ccc(F)cc4)c3=O)cc2F)c1Cl | 6.07 µM [falling, full curve] |
| Fc1ccc2[nH]ccc2c1-c1nc(N2CCOCC2)c2sc(CN3CCN(CC4CC4)CC3)cc2n1 | 10.8 µM [falling, partial curve] |
| C=CC(=O)Nc1cccc(Nc2nc(Nc3ccc(Oc4ccnc(C(=O)NC)c4)cc3)ncc2F)c1 | 6.07 µM [falling, full curve] |
| Oc1cccc(Nc2ccnc3[nH]c4ccccc4c23)c1 | 9.61 µM [falling, partial curve] |
| N#Cc1cnc2c(Cl)cc(NCc3cn(CCN4CCCCCC4)nn3)cc2c1Nc1ccc(F)c(Cl)c1 | 7.64 µM [falling, partial curve] |
| CCOc1ccccc1CN1CCC(Cc2nc(-c3cccnc3)n[nH]2)C1 (stereo not given) | 21.5 µM [falling, partial curve] |
| NCCCNc1ccc(Nc2nccc(Nc3cc(C4CC4)[nH]n3)n2)cc1 | 4.29 µM [falling, full curve] |
| COc1cc2nc(N3CCN(C(=O)c4ccco4)C4CCCCC43)nc(N)c2cc1OC (stereo not given) | 24.1 µM [falling, single point] |
| NC(N)=N/N=C/c1c(Cl)cccc1Cl | 21.7 µM [falling, partial curve] |
| Nc1ncnc2c1c(-c1cccc(OCc3ccccc3)c1)cn2C1CC(CN2CCC2)C1 (stereo not given) | 2.71 µM [falling, full curve] |
| Cc1cc(O)c(-c2ccc([C@@H](C)CN(C)C)cc2)c2c1[nH]c(=O)c1sccc12 | 1.52 µM [falling, full curve] |
| CCNC(=O)C#Cc1ccc2c(C(=Nc3ccc(CN(C)C)cc3)c3ccccc3)c(O)[nH]c2c1 | 6.63 µM [falling, partial curve] |
| CC[C@@H]1C(=O)N(C)c2cnc(Nc3ccc(C(=O)NC4CCN(C)CC4)cc3OC)nc2N1C1CCCC1 | 19.3 µM [falling, partial curve] |
| CCS(=O)(=O)c1cccc(-c2cc(C(=O)NC3CCN(C)CC3)c(C)c3[nH]c4ncc(C)cc4c23)c1 | 14.9 µM [falling, partial curve] and 21.7 µM [falling, partial curve, poor fit] |
| CNC1CCC(N(Cc2cccc(-c3ccncc3)c2)C(=O)c2sc3ccccc3c2Cl)CC1 (stereo not given) | 24.1 µM [falling, partial curve] |

| Compound | IC50 |
| --- | --- |
| Cc1cc(-c2nc3ccncc3[nH]2)c(C)[nH]1 | 7.84 µM [falling, full curve] |
| CC(C)CNc1ccnc(NCc2csc(-c3ccccc3)n2)n1 | 6.81 µM [falling, partial curve] |
| CCCCNc1ncc(C(=O)NCc2ccc(-n3ccnc3)cc2)c(NC2CCC(O)CC2)n1 (stereo not given) | 19.2 µM [falling, partial curve] |
| Cc1ccccc1Sc1ccc(/C=C2\SC(=S)NC2=O)cc1[N+](=O)[O-] | 30.4 µM [falling, single point] |
| CCCC[C@@]1(C2CCCC2)Cc2cc(OCC(=O)O)c(Cl)c(Cl)c2C1=O | 27.3 µM [falling, single point] |
| CN1CCN(CCOc2cc(OC3CCOCC3)c3c(Nc4c(Cl)ccc5c4OCO5)ncnc3c2)CC1 | 6.07 µM [falling, full curve] |
| COc1cc2c(cc1OC)CN(CCc1ccc(NC(=O)c3cccc4c(=O)c5cccc(OC)c5[nH]c34)cc1)CC2 | 7.64 µM [falling, full curve] |
| Cc1cnc(Nc2ccc(OCCN3CCCC3)cc2)nc1Nc1cccc(S(=O)(=O)NC(C)(C)C)c1 | 15.2 µM [falling, partial curve] |
| CCn1cc(-c2ccnc3[nH]c(-c4cccc(CN(C)C)c4)cc23)c(-c2ccc(NC(=O)N(C)C)cc2)n1 | 3.32 µM [falling, partial curve] and 4.32 µM [falling, full curve] |
| CCn1c2ccccc2c2cc(Nc3ccnc(NCCCN4CCOCC4)n3)ccc21 | 2.71 µM [falling, full curve] |
| CNCCN(C)Cc1cn[nH]c1-c1ccc(OC2CC(OCCC3CCOCC3)C2)cc1 (stereo not given) | 17.2 µM [falling, partial curve] |
| CCN1CCC[C@@H]1CNC(=O)c1ccc2c(c1)NC(=O)/C(=C/c1ccccc1F)S2 | 10.8 µM [falling, partial curve] |
| Nc1ncnc2c1c(-c1ccc(Oc3ccccc3)cc1)nn2[C@@H]1CCCNC1 | 19.2 µM [falling, partial curve] |
| NC(=O)c1cnc(-c2ccc(C3(N)CCC3)cc2)c(-c2ccccc2)c1 | 21.5 µM [falling, partial curve] |
| C=CC(=O)Nc1cccc(Oc2nc(Nc3ccc(N4CCN(C)CC4)cc3)ncc2Cl)c1 | 21.5 µM [falling, partial curve] |
| CCCc1cc2c(N3CCN(C4=NCC(C)(C)S4)CC3)ncnc2s1 | 19.2 µM [falling, partial curve] |
| COc1cc(N2CCC(N)CC2)ccc1Nc1ncc(Cl)c(-c2c[nH]c3ccccc23)n1 | 15.2 µM [falling, partial curve] |
| N#C/C(=C1\Nc2ccccc2S1)c1ccnc(NCCc2cccnc2)n1 | 42.9 µM [falling, single point] |
| COc1ccc(N(C(=O)Nc2c(C)cccc2C)c2cc(Nc3ccc(N4CCN(C)CC4)cc3)ncn2)c(OC)c1 | 24.1 µM [falling, partial curve] |
| Cc1c[nH]c2ncnc(N3CCC(CN)(C(=O)Nc4cccc(OC(=O)N(C)C)c4)CC3)c12 | 49.4 µM [falling, partial curve] |
